Assay results as given in PubChem BioAssay AID1645882 (National Center for Advancing Translational Sciences (NCATS), 2021).
Out of some 16,000 compounds screened, about 120 (0.75%) were called active. Roughly 4% stayed inconclusive and do not appear here. Calls come from the whole dose curve; as a rule, active = well fitted inhibition curve with a large enough effect; inconclusive = small, poorly fitted or top-dose-only effect; inactive = no such curve, though single readings can be large or run the other way. This is one part of the list. Where a SMILES comes first, the peptide text is derived from it. The star is where a group is joined. Boc = CC(C)(C)OC(=O)*

Target: Rap guanine nucleotide exchange factor 3 (Homo sapiens) (UniProt O95398)
Chain of UniProt O95398 (O95398 whole entry, looked up): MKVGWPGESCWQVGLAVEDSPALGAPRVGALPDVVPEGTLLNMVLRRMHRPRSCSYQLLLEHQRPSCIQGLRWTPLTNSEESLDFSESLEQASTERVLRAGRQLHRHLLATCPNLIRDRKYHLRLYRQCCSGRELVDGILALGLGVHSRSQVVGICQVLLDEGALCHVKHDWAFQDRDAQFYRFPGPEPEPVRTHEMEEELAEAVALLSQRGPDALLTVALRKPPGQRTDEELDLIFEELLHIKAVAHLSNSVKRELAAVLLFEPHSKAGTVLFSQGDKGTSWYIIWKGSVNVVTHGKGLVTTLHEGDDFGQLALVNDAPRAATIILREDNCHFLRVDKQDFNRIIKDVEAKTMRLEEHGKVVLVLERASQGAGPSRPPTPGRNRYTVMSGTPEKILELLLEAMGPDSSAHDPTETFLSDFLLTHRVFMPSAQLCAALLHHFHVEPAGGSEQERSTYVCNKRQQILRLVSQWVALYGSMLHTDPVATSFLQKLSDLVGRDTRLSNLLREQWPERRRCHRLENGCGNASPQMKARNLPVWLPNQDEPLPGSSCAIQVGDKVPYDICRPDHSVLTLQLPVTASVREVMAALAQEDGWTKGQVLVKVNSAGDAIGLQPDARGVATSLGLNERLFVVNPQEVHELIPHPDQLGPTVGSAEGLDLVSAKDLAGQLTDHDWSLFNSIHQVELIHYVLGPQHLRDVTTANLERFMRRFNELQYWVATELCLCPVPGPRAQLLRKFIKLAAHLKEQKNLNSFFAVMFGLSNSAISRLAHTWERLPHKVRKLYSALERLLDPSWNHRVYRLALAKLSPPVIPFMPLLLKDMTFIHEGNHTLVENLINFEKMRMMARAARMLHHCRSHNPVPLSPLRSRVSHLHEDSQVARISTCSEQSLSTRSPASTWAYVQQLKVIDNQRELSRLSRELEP
Assay: Validation qHTS for antagonist of cAMP-regulated guanine nucleotide exchange factor 3 (EPAC1); note: nearly all actives have a fitted effect of over 75% in size
Details: EPAC1 Rap1B-BODIPY-GDP exchange, fluorescence; series mostly up to 150 µM; activity change, negative = inhibition: at the top concentration
Summary of the method: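 EPAC1 (100 nM) mixed with 250 nM RAP1B-BODIPY-GDP and 50 uM GDP; compounds in concentration series, 5 min at room temperature. Fluorescence (ex 480/em 540 nm) read every 5 min for 30 min; normalized to ATA control and DMSO.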

Activity change, negative = inhibition, inactive:
CCCCC[C@H](O)CC[C@H]1[C@H](O)CC(=O)[C@@H]1CCCCCCC(=O)O 7.46% [at 15.3 µM]
CC1CC(OC(=O)c2ccccc2O)CC(C)(C)C1 (stereo not given)
N[C@@H](CS(=O)O)C(=O)O
COc1ccc(NC(=O)N2CCCC3(CCNCC3)C2)cc1 1.98%
Cc1cnc(CNc2nc(-c3c(C)noc3C)nc3ccccc23)cn1 3.66%
Cc1cc(CNC(=O)c2cnn(-c3ncc4c(n3)-c3ccccc3CC4)c2C2CC2)on1 -19.1%
Cc1cccc2c(C(O)c3cn(C)c4ccccc34)c[nH]c12 (stereo not given) -24.4%
COc1ccc(-c2c(O)c3c(OC)c4c(cc3oc2=O)OC(C)(C)CC4)cc1 12.9%
CCCCC/C=C/C=C1/C(=O)C=C[C@@H]1C/C=C\CCCC(=O)O 26.3% [at 15.3 µM]
Cc1cnc(C)c(-c2cccc3c2OC(CNC(=O)C2(c4ccc(Cl)cc4)CC2)C3)n1 (stereo not given) -5.66%
CCC(C)[C@H]1COCCS(=O)(=O)N1Cc1ccc(Cl)cc1Cl (stereo not given in full) -13.2%
Cc1c(C(=O)NCc2ccccc2Cl)sc2ncnc(NCC3CCCO3)c12 (stereo not given) 10.9%
COc1ccccc1C1CN(CCNC(=O)c2cscn2)Cc2ccccc2O1 (stereo not given) -26.1%
CS(=O)(=O)N1CCC2(CC1)CN(C(c1ccccc1)c1ccccc1)C2 -4.22%
C#C[C@]1(O)CCC2C3CCC4=C(CCC(=O)C4)C3CC[C@@]21C (stereo not given in full) -0.219%
O=C(O)c1ccccc1C(=O)Nc1ccc(S(=O)(=O)Nc2nccs2)cc1 17.5%
CC(C)[C@H](NC(=O)CNC(=O)OC(C)(C)C)C(=O)N[C@H](C=O)C(C)C (Boc-Gly-Val-Val-aldehyde) 17.3% [at 201 µM]
CS(=O)(=O)N1CCC2(CCCN(Cc3ccccc3)C2)CC1 29.3%
O=C(c1ccncc1)N1CCC[C@@]2(CCN(c3ccccc3)C2)C1 17.6%
CN(c1nccc(=O)[nH]1)C1CCN(c2nc3ccccc3n2Cc2ccc(F)cc2)CC1 14.9%
Cc1cnc(-n2ncc(C(=O)NCc3ccncc3)c2-c2cccs2)nc1-c1ccc(F)cc1 2.18%
CC(C)=CCCC(C)C1CC[C@@]2(C)C3=C(CC[C@@]12C)C1(C)CCC(O)C(C)(C)C1CC3 (stereo not given in full) -3.5%
CC(=O)OC(C)OC(=O)C(C)c1ccc(-c2ccccc2)c(F)c1 (stereo not given)
CN(C)C(=O)c1ccc(-c2nccc(NCc3cccs3)n2)cc1 19.4%
O=C(N/N=C\c1ccccc1O)c1ccccc1O 12.6%
CN(C)c1ccc(/C=C/c2c3c(nc4ccccc24)CCCC3)cc1 60.1%
COc1ncc2nc(-c3ccccc3)c(=O)n(C3CC3)c2n1 4.15%
CCN1CCCC1CNC(=O)c1cnn(-c2nccc(-c3ccc(C)o3)n2)c1C1CC1 (stereo not given) 12.2%
CS(=O)(=O)Nc1cccc(-c2nc(NCc3ccccc3)c3ccccc3n2)c1 -4.16%
COCc1c(C(=O)N2CCN(C3CCCC3)CC2)cnn1-c1ncc2c(n1)-c1ccccc1CCC2 13.3%
Cc1ncc(C[n+]2csc(CCOP(=O)(O)OP(=O)(O)O)c2C)c(N)n1 8.13%
Cn1c(=O)c(-c2ccccc2)nc2cnc(N3CCOCC3)nc21 12.6%
CC[C@H](CO)Nc1nc(NCc2ccccc2)c2ncn(C(C)C)c2n1
Cc1ccc(C(=O)Nc2cccc(-c3nc(CNC(=O)c4cccc(N(C)C)c4)c(C)o3)c2)s1 6.1%
O=P(O)(O)OC(Cn1cncn1)(Cn1cncn1)c1ccc(F)cc1F 15.2%
OCCN(CCO)c1nc(N2CCCCC2)c2nc(N(CCO)CCO)nc(N3CCCCC3)c2n1
CC(CCCCC(=O)Nc1ccc(C(F)(F)F)cc1)NCCc1cnc[nH]1 (stereo not given) 5.97%
c1nc(NCCN2CCOCC2)c2cc(-c3ccoc3)ccc2n1 13.1%
Cc1ccc(C)c(C(=O)N2CCC(C3(c4ccccn4)NC(=O)N(CC4CCCO4)C3=O)CC2)c1 (stereo not given) -4.13%
CC[C@@H]1[C@H]2CCCC(=O)N3CC[C@@H](C[C@@H]1OC(=O)Nc1ccccc1)[C@@H]23 13.4%
ClC(Cl)Cl 28.3%
CS(=O)(=O)N1CCC2(CCN(c3ccccc3)CC2)CC1 9.92%
Cc1cc(/C=C/c2ccnc3ccccc23)ccc1N(C)C 1.95%
COc1cc(=O)n2c(c1C(=O)NCc1ccco1)CCN(Cc1cccc(C)n1)CC2 1.86%
O=C(O)Cc1ccc(CCNS(=O)(=O)c2ccc(Cl)cc2)cc1 -7.33%
O=C(O)c1ccccc1-c1oc2cc(O)ccc2c(=O)c1Oc1ccccc1 2.69%
COc1ccc2c(c1)-c1nc(-n3ncc(C(=O)N(C)CCO)c3C3CC3)ncc1CC2 5.8%
CN1CCN(C(c2ccccc2)c2ccccc2)CC1
O=C(Cn1nc2ccccc2n1)N1CCOc2ccc(CN3CCc4sccc4C3)cc2C1 12.7%
COC(=O)[C@@H]1CC2=CC(=O)CC[C@]2(C)[C@@]23O[C@@H]2C[C@@]2(C)[C@@H](CC[C@@]24CCC(=O)O4)[C@H]13 -2.73%
CC(C)Cc1nc2cc(NS(=O)(=O)N(C)C)cc(C(=O)N3CCSCC3)c2n1C 3.75%
COc1cccc(Nc2ncc3ncc(=O)n(C[C@H]4CCCO4)c3n2)c1 28.9%
O=[N+]([O-])c1ccc2cn[nH]c2c1 0.214%
[N-]=[N+]=N[C@@H](CCN1CC[C@H](O)CCC1=O)c1ccccc1 -1.31%
Cn1ccnc1C1CCCCN1C(=O)CN1Cc2ccccc2OC(c2ccccc2F)C1 (stereo not given) 4.66%
O=c1onc2cnc3ccccc3n12
c1cncc(OC2CCN(Cc3ccc4c(c3)CN(Cc3ccc5c(c3)OCO5)CCO4)CC2)c1 9.63%
COc1ncc2nc(-c3cc(F)cc(F)c3)c(=O)n(C3CC3)c2n1 9.73%
CN(C)c1ccc(/C=C/c2cc[n+](C)c3ccccc23)cc1 -25.7%
C[C@]12CC[C@@H]3c4ccc(OC(=O)c5ccccc5)cc4CC[C@H]3[C@@H]1CC[C@@H]2O -16.3%
COc1cc(C=C2CCC/C(=C\c3ccc(O)c(OC)c3)C2=O)ccc1O 18.4%
Cc1c(C(=O)N(C)Cc2cccc3ncccc23)cnn1-c1nccc(-c2ccccc2F)n1 7.94%
N[C@H](C(=O)O)[C@@H]1[C@@H](C(=O)O)C1(F)F
CC(=O)c1ccccc1-c1ccc2c(c1)CC(CNC(=O)C[C@@H]1C[C@@H](C)NC(=S)N1)O2 (stereo not given in full) 11.9%
CCCN(C/C=C/I)C1CCc2cccc(O)c2C1 (stereo not given) 39.1%
FC(F)(F)c1ccccc1-c1ccc2ncnc(N3CCOCC3)c2c1 2.95%
COc1cccc(Cn2c(=O)c(C)nc3cnc(Nc4ccccc4)nc32)c1 0.562%
CC(C)CC(=O)N1C/C=C\C[C@@H](c2ccc(Cl)cc2)N(Cc2ccc(Cl)cc2)C(=O)[C@@H]1Cc1ccccc1 -2.67%
CN(C)C(=O)c1ccc(-c2nc(N3CCOCC3)c3ccccc3n2)cc1 9.86%
CCCCCCc1c(C[C@H](N)C(=O)O)o[nH]c1=O
c1cc2c(cc1C1CCCCC1)c1c3n2CCN[C@H]3CCC1 -9.94%
O=C(c1n[nH]c2c1CCCC2)N1CCC(n2c(C3CCCO3)nc3ccccc32)CC1 (stereo not given) 13.4%
CCN(CC)CCNC(C(=O)OCCC(C)C)c1ccccc1 (stereo not given) 25.8%
C[C@@H]1C[C@H]2[C@@H]3CCC4=CC(=O)C=C[C@]4(C)[C@@]3(F)[C@@H](O)C[C@]2(C)[C@@]1(O)C(=O)COP(=O)(O)O 22.3%
Cc1cccc(CNC(=O)c2c3n(c(C)cc2=O)-c2ccccc2SC(c2ccsc2)C3)n1 (stereo not given) 12.9%
NCCCNCCCCNC(=O)C(O)NC(=O)CCCCCCN=C(N)N (stereo not given) 37.8%
COCCn1c(=O)cnc2cnc(Nc3ccccc3)nc21 -0.712%
CC(N)C(O)c1cccc(O)c1 (stereo not given) 21%
NO -0.401% [at 75.8 µM]
Cc1cc(C)c(S(=O)(=O)Nc2ccccc2C(F)(F)F)c(C)c1 -7.52%
COCCC1CCCCN1Cc1nc(N2CCCC2)c2cc(OC)c(OC)cc2n1 (stereo not given) -2.83%
O=c1[nH]c2ccccc2n1CCCN1CCN(C(c2ccccc2)c2ccccc2)CC1 -2.02%
Nc1nc(Cl)nc2c1ncn2[C@@H]1O[C@H](CO)[C@@H](O)[C@H]1O
COc1ccc(NC(=O)N2CC3(CCN(C(=O)c4ccc(OC)cc4)CC3)C2)cc1 16%
N#C[C@H](Cc1ccc(O)cc1)c1ccc(O)cc1 8.56%
FC(F)(F)c1ccccc1-c1nc(NC2CCNCC2)c2ccccc2n1 -1.98%
CC(C)[C@H](CO)Nc1nc(Nc2ccc(C(=O)O)c(Cl)c2)c2ncn(C(C)C)c2n1 -20.8%
NC1(C(=O)O)C[C@@H](C(=O)O)[C@H](C(=O)O)C1
COc1cc(COc2cc(N)c(Cl)cc2C(=O)CCC2CCN(CCNS(C)(=O)=O)CC2)cc(OC)c1
CC(=O)N1CCC2(CCCN(c3ccccn3)C2)CC1 6.52%
COc1cccc(-c2cncnc2NCc2cnc(C)cn2)c1 11.9%
CCC[C@H](N[C@@H](C)C(=O)N1[C@@H]2CCCC[C@H]2C[C@H]1C(=O)O)C(=O)OCC 29.7%
COCC(=O)Nc1cc(C(=O)N2CCC(c3ccccc3)CC2)cc2nc(-c3ccccc3)n(C)c12 2.24%
Nc1nc2ncc(CNc3ccc(C(=O)N[C@@H](CCC(=O)O)C(=O)O)cc3)nc2c(=O)[nH]1 3.89%
COc1ccc(C(=O)c2ccccc2)c(O)c1O 16.3%
Cn1cnc([N+](=O)[O-])c1Sc1ncnc2nc[nH]c12
O=C(c1ccco1)N1CCC[C@@]2(CCN(c3ncccn3)C2)C1 23.6%
COc1ccc(C(=O)N2CCC[C@@]3(CCN(C(=O)NC(C)C)C3)C2)cc1 2.22%
CSc1nc(C(=O)NCc2nc(-c3cccc(NC(=O)c4ccc(C)s4)c3)oc2C)cs1 5.03%
C=C1C[C@@]23CC[C@H]4[C@@](C)(CCC[C@@]4(C)C(=O)OC4OC(CO)C(O)C(O)C4O)[C@@H]2CC[C@]1(OC1OC(CO)C(O)C(O)C1OC1OC(CO)C(O)C(O)C1O)C3 (stereo not given in full) 0.891% [at 75.8 µM]
